According to the supplement of paper PMC3334620:
Over roughly 33,000 sequences, “E-score (-0.5 to 0.5)” has its median near -0.036; the highest 2% begin near 0.37. This is one part of the list.

Biological target: T1, Yer064c (UniProt P40041)
T1 sequence: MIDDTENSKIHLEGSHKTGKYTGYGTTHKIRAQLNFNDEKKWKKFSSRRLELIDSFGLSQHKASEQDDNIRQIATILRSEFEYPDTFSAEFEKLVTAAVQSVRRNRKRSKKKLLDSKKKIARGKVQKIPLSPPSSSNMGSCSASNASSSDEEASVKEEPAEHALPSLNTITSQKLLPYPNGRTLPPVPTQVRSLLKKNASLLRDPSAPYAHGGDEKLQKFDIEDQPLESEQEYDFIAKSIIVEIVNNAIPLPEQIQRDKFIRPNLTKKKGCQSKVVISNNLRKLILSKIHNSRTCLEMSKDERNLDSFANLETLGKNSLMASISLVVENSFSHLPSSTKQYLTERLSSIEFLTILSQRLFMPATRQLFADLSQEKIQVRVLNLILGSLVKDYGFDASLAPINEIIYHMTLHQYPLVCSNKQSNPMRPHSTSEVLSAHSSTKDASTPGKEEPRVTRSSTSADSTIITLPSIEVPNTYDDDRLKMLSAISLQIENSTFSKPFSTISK
Assay: PBM E-score (8-mer binding enrichment) (E-score (-0.5 to 0.5)); higher = stronger / more preferred TF binding; most listed sequences are background and not binding sites
Conditions: protein concentration: 200 nM; construct: GST-full length
Summary of the method: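 Each ungapped eight-base word and its reverse complement, pooled, received an E-score from the Universal PBM Analysis Suite. Underlying scans, normalised with masliner, recorded fluorescent anti-GST bound to GST-tagged yeast transcription factors. These were applied at about 100-200 nM to universal all-10-mer Agilent arrays double-stranded by primer extension.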

Sequence | PBM E-score
ACTGCAGC | -0.0578
ATCGGCAA | -0.127
ACCGCCAC | -0.124
GCCGCCCC | -0.232
CTGCTGCC | -0.207
ATCTCTTA | 0.0455
GGTAGACA | 0.0968
ATGTGCAC | 0.0933
AGAGTCCC | 0.0408
AAGCAGCT | -0.178
ACGAACGG | -0.127
GCATAGAA | -0.207
CAAGCGAG | 0.105
CATCCCCA | -0.105
AATAGAGA | -0.161
CATTAATA | -0.0259
GTGGAGTA | 0.0154
ACGTCTCG | -0.077
ACCCAGTA | -0.202
AACCGTGG | -0.0728
CCGCGCGC | -0.0622
AGCACGAG | 0.103
GGTATCAA | 0.0678
ATGTCGCG | -0.199
AGGGATCC | -0.282

Sequence | PBM E-score
CGAGAACG | -0.0923
GCTGACCA | 0.0107
ACTTGTTC | 0.0163
GCGAGACC | -0.033
AATGAATT | 0.0966
GAAGAACC | -0.115
CCTCCCGC | -0.193
ACAGGACC | -0.0854
GTTGGGGA | -0.0796
AGTGGGTA | 0.0808
AGACCGAT | -0.214
AGCATCCC | -0.319
CACATGGG | -0.121
TATGGGAA | -0.0972
AAAAACGA | 0.0447
ACTACAAC | 0.196
CACGCAGA | 0.0753
TCTCCGCA | -0.0308
CAGGTACC | -0.0821
GAACGGGC | -0.217
CCTCCTCG | -0.211
GAAGCGTC | -0.193
AGTCTGCG | 0.108
CCCGACAC | -0.23
ATCCCATA | -0.191

Sequence | PBM E-score
CAAGTTGG | -0.111
CATGGTCC | -0.0176
ATACTGCG | -0.106
AGTCACAA | 0.46
GCAAGCCC | -0.323
GTATGAGA | 0.149
CATGCGGC | -0.0449
ATAGCAAA | -0.0715
ATGAGGAA | -0.0169
AAGCGCGG | -0.177
CCAAGCGA | -0.0702
CACTCTCC | -0.0733
GATGCATA | -0.219
ACTGGTGA | 0.108
CCCCCCCA | -0.244
CCTTAATA | -0.108
GGTACAGA | -0.0394
CAAGATAG | -0.0246
GCGATTAC | 0.187
CATCCTGC | 0.0695
GACCGCGA | -0.0427
CCACTCAC | -0.0373
GCGTGAGA | 0.0527
ATTTTTGC | 0.0714
ATTGTCGG | 0.0139

Sequence | PBM E-score
AACCTTTC | -0.204
CGGAAAAG | 0.117
AAGAGAGT | 0.221
CTAGAGCC | -0.116
CCACAACC | -0.0752
AACCAGCA | -0.0168
CAATATTC | -0.0819
CTCATTTA | 0.243
CCAGGAAC | -0.275
ATGCGGGG | -0.196
CAGGATAA | -0.208
AGGTCCAA | -0.1
AACGGATT | 0.0965
GCAATGGC | -0.142
TCAAGGCA | 0.0122
CCTCGGAG | -0.164
AGCCAGAA | 0.0726
AACTGAAG | 0.0115
AGACAGTC | 0.24
ACGGTGCA | -0.0944
ACTGGGCG | -0.0675
CTCGGGAC | -0.208
TACTGTGA | 0.183
GGGACACC | -0.452
ACGTTGTA | -0.138

Sequence | PBM E-score
CAAGTGCC | -0.312
CCGGACCG | 0.00619
TACAAAGA | 0.215
ACCGATAG | 0.017
AGCAATCC | -0.161
CATCAGAG | 0.166
CCGGCGGA | -0.143
GCTTGAAC | -0.0632
GATGCGGA | -0.0711
CGTCCGCC | -0.263
ATAATACC | 0.0652
GTCTCTCA | 0.181
GGGTGCAC | -0.187
CCAGATCA | 0.058
CCTGGAAC | -0.277
AGGTCAAC | -0.0577
GCTAGAAC | 0.0611
ATCGTCGA | 0.153
CCTGGCCA | -0.288
AAGGATGG | 0.0892
GGCTGTAC | -0.082
ATCGACCC | -0.0696
GGGCTGCA | -0.0969
GGTAATGA | 0.189
CAAATTAG | 0.168

Sequence | PBM E-score
AAATGTTA | -0.0729
AAGAGGGC | -0.249
ACTGTCCC | -0.145
TAGTCGCA | 0.412
CGAATGCG | 0.0418
CTCAGCCA | 0.274
GCCAAAAC | -0.152
CACACCCG | -0.00999
TAATAAAA | 0.228
CTGATTTC | 0.222
CAGGGCCA | -0.298
ACGATCCT | 0.0712
AACGCTAT | -0.253
GAAGTATC | -0.0585
ACTGGGAA | 0.0915
ACGTGAGT | 0.339
AAGTTATG | 0.0309
ATCTACGA | 0.145
CAACCAGG | -0.113
AATCGCTC | 0.211
CCGGTAGA | -0.0193
TACGACCA | -0.0167
AGAGCACA | 0.03
ACCTATAT | 0.0832
CCGCGATA | -0.0471

Sequence | PBM E-score
CATTTTAA | 0.132
AGCTCCAG | -0.115
GCACGAGA | -0.0587
GCCGGTTA | -0.0775
CAATTAGA | 0.135
CACGTGAC | 0.133
GCTTTTGA | -0.0379
CATCATGG | 0.0236
AATAATCA | 0.382
CCATCGGC | -0.128
CTCTTCAC | -0.107
AGAGAACT | -0.0782
CCGGTGTC | -0.0726
ACAGCGTG | -0.0593
ACTTGGTG | -0.0115
GACTTCAA | 0.326
CGCACGAA | 0.068
AGCCCGAA | -0.104
CAAGTCGA | -0.0228
AAGAGCAG | -0.115
GGTTTATA | 0.00611
GATCGTCA | 0.0226
